Measurements taken from publication PMC4450067 (PLoS Pathogens, 2015).

Legend:
[1] = test system: stress granules in MEF cells; assay: Stress granule formation in SFV-infected MEFs with or without Pat A; type: cell-based; settings: mock-infected MEFs; Pat A 100 nM for 1 h; fifty cells per treatment
G3BP-1 [2] = assay: Co-immunoprecipitation of EGFP fusion proteins with G3BP-1 from BHK cell lysates; type: binding; settings: anti-GFP IP, BHK cells, 16 h after transfection
G3BP-2 = assay: Co-immunoprecipitation of EGFP fusion proteins with G3BP-2 from BHK cell lysates; type: binding; settings: anti-GFP IP, BHK cells, 16 h after transfection
G3BP-1 [3] = assay: Immunofluorescence colocalization with G3BP-1 in SFV-infected cells; settings: SFV-infected MEFs, MOI 5, 8 hpi
[4] = USP10_1–40 series, alanine mutants of EGFP-USP10_1–40

CC(/C=C/C(C)=C/[C@@H]1Cc2nc(cs2)[C@@H](C)C[C@@H](N)CC(=O)O[C@@H](C)C/C(C)=C/C=C\C(=O)O1)=C\CN(C)C [Pat A, pateamine A]
cells with SGs [1]: Approximately 100%

EGFP-USP10_1–40
G3BP-1 detected in complex (G3BP-1 [2]; Fig. 4B): detected in complex
binding to G3BP-1 (G3BP-1 [2]; [4]): efficiently coprecipitated
G3BP-2 detected in complex (G3BP-2; Fig. 4B): detected in complex
binding to G3BP-2 (G3BP-2; [4]): efficiently coprecipitated

USP10: ubiquitin-specific protease 10, cellular binding partner of G3BP
overlap of USP10 with G3BP in SFV-infected cells (G3BP-1 [3]): did not detect any significant overlap with G3BP
